# Assay results from PubChem BioAssay AID445 (National Center for Advancing Translational Sciences (NCATS), 2006).
# Hit rate of the full screen: of about 110,000 compounds, about 40 (0.04%) were called active. The inconclusive results got no clear call from the source; some entries with a clear call stand among them for comparison. Calls follow the shape of the dose curve; as a rule, active = well fitted curve in the direction sought with a large enough effect in the signal ratio (not every such curve was filed as active); inconclusive = small, poorly fitted or top-dose-only effect, or a change in a side signal; inactive = flat fitted curve, though single readings scatter; the % refers to the signal ratio. A potency beside an inconclusive call is a rough fit, not a confirmed value.
# Assay: IkB Signaling;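 as to IkBa stabilization activation: 0% = basal untreated cells and 100% = reference inhibitor full response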
# Settings: ABC-DLBCL IkBa-CBG/CBR dual luciferase ratio (green luciferase fused to IkBa over red control in OCI-Ly3 lymphoma cells), 4 h; IkBa stabilization activation: at 57.1 µM (top of the series), scaled: untreated 0%, proteasome inhibitor 100% unless noted
# In short: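 Luminescence ratio of IκBα-fused green versus native red beetle luciferase in OCI-Ly3 cells, 4 h post-doxycycline with compound; red signal alone, scaled from basal (0%) to zero light (-100%), flagged nonspecific or cytotoxic effects.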
# Potency is read from the fitted curve at half-maximal effect.
SMILES,IkBa stabilization activation,Potency
O=C(NC1CCCCC1)N1CCc2[nH]c3ccccc3c2C1,inconclusive: 5.21% [signal inhibitor],
COc1ccc(CNC(=O)Cn2ncc3c4ccccc4n(Cc4cccc(Cl)c4)c3c2=O)cc1,inconclusive: 2.63% [signal inhibitor],
OCCN1CCN(CCCN2c3ccccc3Sc3ccc(C(F)(F)F)cc32)CC1,inactive,
CN1CCc2c(sc3c2C(=O)NC(c2ccc(OC(=O)c4ccccc4)cc2)N3)C1 (centres undefined),inactive,
COc1ccc(OC)c(NCc2cccn2-c2nnc(N3CCCCC3)s2)c1,inconclusive: -1.14% [signal inhibitor],
COc1ccc(C)cc1NC(=O)c1ccc2c(=O)n3c(nc2c1)CCCCC3,inconclusive: 2.4% [signal inhibitor],
COc1ccc(-c2nnc(SCC(=O)Nc3ccccc3OC)o2)cc1,,"inconclusive: 15.8 µM [signal inhibitor, partial curve]"
Cc1cccc(-c2nc3c4ccccc4nc(N4CCN(c5ccccc5F)CC4)n3n2)c1,inactive,
CCn1cc(C(=O)OCC(=O)OC2CC(C)CCC2C(C)C)c(=O)c2ccc(C)nc21 (centres undefined),inconclusive: 1% [signal inhibitor],
Cc1ccc(CNC(=O)NCc2noc3ccc(C)cc23)cc1,inconclusive: 0.668% [signal inhibitor],
Cn1c(=O)c2c(-c3ccc(Cl)cc3)n(Cc3ccc(Cl)cc3)cc2n(C)c1=O,inconclusive: 5.64% [signal inhibitor],
O=C(CSc1nnc(SCc2ccc(Cl)cc2)s1)N1CCN(C(=O)c2ccco2)CC1,inactive,
CCOc1ccc(C(c2c(O)cc(C)n(CCOC)c2=O)N2CCN(c3ccccc3)CC2)cc1 (centres undefined),inconclusive: 0.6% [signal inhibitor],
O=C(CSc1nnc(COc2cccc3ccccc23)o1)N1CCN(C(=O)c2ccco2)CC1,inconclusive: 2.79% [signal inhibitor],
OC[C@@H]1O[C@@H](O)[C@H](N=Cc2ccc3c(c2)OCO3)[C@@H](O)[C@@H]1O,"inactive: 1.84% [at 11.4 µM, scaled: untreated 0%, proteasome inhibitor 100%]",
Cc1ccc(Cl)cc1NS(=O)(=O)c1ccc2oc(=O)c3ncn(C)c3c2c1,inactive,
CCCc1cc(C(=O)Nc2cccc(C(C)=O)c2)no1,inactive,
COc1ccc(-c2noc(N3CCC(C(=O)Nc4ccc(F)cc4Cl)CC3)n2)cc1,inconclusive: 3.56% [signal inhibitor],
CCN(C(=O)CCS(=O)(=O)c1cc2[nH]c(=O)c(=O)[nH]c2cc1C)c1ccccc1,inconclusive: 0.0304% [signal inhibitor],
Cc1cc2oc(=O)cc(CN3CCN(C/C=C/c4ccccc4)CC3)c2cc1O,inconclusive: 0.35% [signal inhibitor],
Cc1ccc2sc(N3CCN(C(=O)CCS(=O)(=O)c4ccc(Cl)cc4)CC3)nc2c1C,inactive,
O=C(NCCc1ccc(F)cc1)C(=O)NCC(c1cccs1)S(=O)(=O)c1ccc(F)cc1 (centres undefined),inconclusive: 7.6% [signal inhibitor],
CCc1c(C)sc(NC(=O)c2cc(C)on2)c1C#N,inactive,

SMILES,IkBa stabilization activation,Potency
O=C(Cn1c(=O)c2c(ncn2C2CCCC2)n(Cc2ccccc2)c1=O)N1CCc2ccccc21,,"inconclusive: 12.6 µM [signal inhibitor, partial curve]"
COC(=O)c1c(NC(=O)CCCOc2ccc(C(C)(C)C)cc2)sc2c1C(C(=O)OC)CC2 (centres undefined),,inconclusive: 31.6 µM [signal inhibitor]
CCn1c(SCC#N)nc2c(c1=O)C1(CCCC1)Cc1ccccc1-2,inconclusive: 2.85% [signal inhibitor],
CCCC(=O)N(CCc1ccccc1)Cc1nc2ccccc2c(=O)[nH]1,inconclusive: 1.78% [signal inhibitor],
COc1ccc(N2CCN(C(=O)CCn3c(=O)[nH]c4cc(OC)c(OC)cc4c3=O)CC2)cc1,inconclusive: 3.43% [signal inhibitor],
CCc1ccc(CNC(=O)C(C)n2ccc3cc(S(=O)(=O)N4CCCCCC4)ccc32)cc1 (centres undefined),inconclusive: -0.956% [signal inhibitor],
O=C(O)C(Cc1ccccc1)Cc1ccccc1,"inactive: -0.986% [at 11.4 µM, scaled: untreated 0%, proteasome inhibitor 100%]",
Cc1cccc(NC(=O)CCS(=O)(=O)c2cccc3nsnc23)c1C,inconclusive: 13.3% [signal inhibitor],
O=C(CC1COc2ccccc2O1)Nc1ccccn1 (centres undefined),inactive,
COc1cccc(C(=O)NCCc2csc(-c3ccc(Cl)cc3)n2)c1,inconclusive: 7.16% [signal inhibitor],
Cc1cc(Nc2ccccc2)nc(-c2ccccc2O)n1,inactive,
COc1ccc(CCn2c(C)cc(C(=O)CSc3nnnn3C)c2C)cc1,inactive,
COc1ccc(C)cc1NC(=O)CSc1nnc(-c2ccccn2)n1Cc1ccco1,inconclusive: 5.83% [signal activator],
O=C(NCc1cccc(F)c1)C1CCCN(C(=O)N2CCOc3ccccc32)C1 (centres undefined),inconclusive: 15.2% [signal inhibitor],
Cc1ccc(C)c(NC(=O)C2CCCN(c3nc4ccccc4s3)C2)c1 (centres undefined),inconclusive: 1.82% [signal inhibitor],
CC1CN(C(=O)N2CCC(C(=O)NCc3cccs3)CC2)c2cc(Cl)ccc2O1 (centres undefined),inconclusive: 1.22% [signal inhibitor],
O=C(c1ccc(Br)o1)N1CCN(c2ccc3nnc(-c4ccccc4)n3n2)CC1,inconclusive: 7.59% [signal inhibitor],
COC(=O)c1cc2sc(Cl)cc2n1Cc1c(C)cc(C)cc1C,inactive,
COc1ccc(OC)c(CNC(=O)c2ccc(C)c(NC(=O)c3nsc4ccccc34)c2)c1,inconclusive: -0.124% [signal inhibitor],
CCCCNC(=O)C1CCN(S(=O)(=O)CCC)CC1,inconclusive: -4.09% [signal inhibitor],
COc1ccc(-c2cc(C)no2)cc1S(=O)(=O)Nc1c(C)cc(C)cc1C,inactive,
CCOc1ccc(OCC)c(NS(=O)(=O)c2cc(-c3cnc(C)o3)ccc2OC)c1,inactive,
Cc1sc2nc(C(C)C)nc(SCC(=O)N3CCN(C(=O)c4ccco4)CC3)c2c1C,inconclusive: 0.272% [signal inhibitor],

SMILES,IkBa stabilization activation,Potency
Cn1c(SCC(=O)c2ccccc2)nnc1-c1cnccn1,inconclusive: 9.65% [signal inhibitor],
CCc1nn2c(=O)cc(COC(=O)c3cccc(NC(=O)c4cccs4)c3)nc2s1,inconclusive: 10.5% [signal inhibitor],
CC1CCN(CC[C@@H]2CCCN2S(=O)(=O)c2cccc(O)c2)CC1,inactive,
COCCNC(=O)Nc1cc(C(=O)NCc2ccc(C(C)C)cc2)ccc1N1CCCC1,inconclusive: 1.6% [signal inhibitor],
COc1cc(C2NC(=O)c3c(sc4c3CCN(C)C4)N2)cc(Br)c1OC(=O)c1ccc(C)cc1 (centres undefined),inconclusive: 3.97% [signal inhibitor],
CCOc1ccc(C2C(C(=O)OC)=C(C)NC3=C2C(=O)c2ccccc23)cc1OC (centres undefined),inconclusive: 3.37% [signal inhibitor],
C=CCNc1ncnc2c1cnn2-c1cccc(C)c1,inactive,
O=C(NCC(c1ccc2c(c1)OCO2)N1CCN(c2ccc(F)cc2)CC1)c1cccc([N+](=O)[O-])c1 (centres undefined),inconclusive: 3.63% [signal inhibitor],
Cc1ccc2onc(CNC(=O)Nc3ccccc3C#N)c2c1,inconclusive: 1.29% [signal inhibitor],
Cc1c(CCC(=O)O)c(=O)oc2cc3occ(-c4ccc(F)cc4)c3cc12,inactive,
O=C(c1noc2c1CCc1ccccc1-2)N1CCc2ccccc2C1,inconclusive: 3.64% [signal inhibitor],
COc1ccc(Nc2ncnc3c2c(-c2ccccc2)cn3-c2ccc(C)c(Cl)c2)cc1OC,inconclusive: -0.317% [signal inhibitor],
O=C(CSc1nnc(Cc2cccs2)n1Cc1ccco1)Nc1ccc(Cl)cc1Cl,inconclusive: -4.46% [signal inhibitor],
Cc1nn(C)c2c1c(C(F)(F)F)cc(=O)n2C(C)C(=O)NCCc1ccc(Cl)cc1 (centres undefined),inconclusive: 0.529% [signal inhibitor],
COc1ccc(NC(=O)c2ccccc2NC(=O)c2ccco2)c(OC)c1,inconclusive: 4.71% [signal inhibitor],
COCCOC(=O)c1c(C)oc2c1cc(NS(=O)(=O)c1ccc(Cl)c(C)c1)c1ccccc12,,"inconclusive: 25.1 µM [signal inhibitor, single point]"
Cc1ccc(Oc2coc3cc(OCC(=O)NC4CCCCC4)ccc3c2=O)cc1,inactive,
COc1ccc(OCc2ccc(-c3nc(C#N)c(NCc4ccccc4)o3)o2)cc1,inconclusive: 1.57% [signal inhibitor],
COc1ccc(-c2nc(SCC(=O)Nc3ccc4c(c3)OCO4)c(-c3ccccc3)[nH]2)cc1,inconclusive: 2.29% [signal inhibitor],
O=C(CN1CCN(c2ncccn2)CC1)N1CCN(C(c2ccccc2)c2ccccc2)CC1,inconclusive: 3.47% [signal inhibitor],
CC1=C(C(=O)OC(C)C)C(c2c[nH]c3ccccc23)n2ncnc2N1 (centres undefined),inactive,
COc1ccccc1NC(=O)C1=C(C)Nc2nc(-c3ccco3)nn2C1c1ccccc1 (centres undefined),inconclusive: 12.2% [signal inhibitor],
Cc1ccccc1NC(=O)c1c(NC(=O)c2ccncc2)sc2c1CCC(C(C)(C)C)C2 (centres undefined),inconclusive: 12.7% [signal inhibitor],
